Test results from PubChem BioAssay AID445 (National Center for Advancing Translational Sciences (NCATS), 2006).
Out of some 110,000 compounds screened, about 40 (0.04%) were called active. Inconclusive means that the source gave no clear call. Such entries were picked first, then a sample of the others. Calls come from the whole dose curve; as a rule, active = well fitted curve in the direction sought with a large enough effect in the signal ratio (not every such curve was filed as active); inconclusive = small, poorly fitted or top-dose-only effect, or a change in a side signal; inactive = flat fitted curve, though single readings scatter; the % refers to the signal ratio. Potencies of inconclusive entries are doubtful fits and often do not repeat.

Assay: IkB Signaling;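 for IkBa stabilization activation: 0% = basal untreated cells and 100% = reference inhibitor full response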
Settings: ABC-DLBCL IkBa-CBG/CBR dual luciferase ratio (green luciferase fused to IkBa over red control in OCI-Ly3 lymphoma cells), 4 h, scaled: untreated 0%
How it was run: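 Curves were fitted separately to fusion (green), unfused (red) and ratio luminescence, then classed by r2, magnitude and activity. Cells: OCI-Ly3, 4 h compound plus doxycycline at 37C; 10 uM MG-132 defined full response.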

[1] = IkBa stabilization activation: at 57.1 µM (top of the series), proteasome inhibitor 100% unless noted
Potency is the fitted concentration of half-maximal effect.

Q: For `Cc1cc(C(=O)CSc2nnc(N)s2)c(C)n1CCc1ccc(Cl)cc1`, which IkBa stabilization activation [1] is on record?
A: inconclusive: -1.48% [signal inhibitor]

Q: With `N#Cc1nc(-c2ccc(COc3ccccc3)o2)oc1NCc1cccnc1` as the molecule, how does the IkBa stabilization activation [1] read?
A: inconclusive: 3.19% [signal inhibitor]

Q: Which IkBa stabilization activation [1] does the source give for `COC(=O)c1ccc(OCC2c3cc(OC)c(OC)cc3CCN2C(=O)c2ccccc2C)cc1` (configuration not stated) here?
A: inconclusive: -2.29% [signal inhibitor]

Q: For `Cc1nc(N2CCCC2)c2c(C(=O)N3CCN(c4ccc(F)cc4)CC3)c(C)oc2n1`, which IkBa stabilization activation [1] is on record?
A: inconclusive: 0.752% [signal inhibitor]

Q: Which IkBa stabilization activation [1] does the source give for `Cc1ccc(-c2nnc(Nc3ccc(Br)cc3)c3ccccc23)cc1S(=O)(=O)NCC1CCCO1` (configuration not stated) here?
A: inconclusive: 14.2% [signal inhibitor]

Q: For `CCc1cccc(CC)c1NC(=O)c1c(C)oc2ccc(O)c(CN3CCN(C)CC3)c12`, which IkBa stabilization activation [1] is on record?
A: inconclusive: 0.475% [signal inhibitor]

Q: With `Cc1cccc(N2CCN(C(=O)Cn3ncc4c3-c3cc(C)ccc3OC4)CC2C)c1` (configuration not stated) as the molecule, how does the IkBa stabilization activation [1] read?
A: inconclusive: -1.14% [signal inhibitor]

Q: Which IkBa stabilization activation [1] does the source give for `Fc1cccc(-c2cc3nc4c(c(N5CCC6(CC5)OCCO6)n3n2)CCCC4)c1` here?
A: inactive

Q: For `Cc1cc(C)c(NC(=O)CCN2C(=O)c3ccccc3Sc3ncccc32)c(C)c1`, which IkBa stabilization activation [1] is on record?
A: inactive

Q: With `CCCN(CCc1ccccc1)[C@H]1CCc2c(O)cccc2C1` as the molecule, how does the IkBa stabilization activation [1] read?
A: inactive

Q: For `CSc1nc(Nc2ccc(C)cc2C)cc(-c2ccccc2)n1`, which IkBa stabilization activation [1] is on record?
A: inconclusive: 1.74% [signal inhibitor]

Q: For `CN(Cc1ccccc1)C(=O)C1CCN(S(=O)(=O)c2ccc3c(c2)oc(=O)n3C)CC1`, which IkBa stabilization activation [1] is on record?
A: inconclusive: 0.216% [signal inhibitor]

Q: Which Potency [1] does the source give for `COc1ccc(-c2cc(-c3ccccc3O)[nH]n2)cc1OC` here?
A: inconclusive: 3.16 µM [signal inhibitor, partial curve]

Q: Which IkBa stabilization activation [1] does the source give for `CCCCCNC(=O)c1ccc2c(c1)ncn2-c1cccc(C)c1` here?
A: inconclusive: -3.78% [signal inhibitor]

Q: With `Cc1cccc(C(=O)Nc2nnc(S(=O)(=O)N(C)Cc3ccc(Cl)cc3)s2)c1` as the molecule, how does the IkBa stabilization activation [1] read?
A: inconclusive: -1.06% [signal inhibitor]

Q: Which IkBa stabilization activation [1] does the source give for `COc1cccc(-c2cc(NCc3ccc(OC)cc3OC)ncn2)c1` here?
A: inactive: 7.48% [at 11.4 µM, scaled: untreated 0%, proteasome inhibitor 100%]

Q: For `Cc1ccc(C(=O)NCC(c2ccc3c(c2)OCO3)N2CCN(c3ccc(F)cc3)CC2)cc1` (configuration not stated), which IkBa stabilization activation [1] is on record?
A: inconclusive: 1.49% [signal inhibitor]

Q: With `Cc1nc2cnc(Nc3ccccc3)nc2n(CCC#N)c1=O` as the molecule, how does the IkBa stabilization activation [1] read?
A: inactive: 1.12% [at 11.4 µM, scaled: untreated 0%, proteasome inhibitor 100%]

Q: Which IkBa stabilization activation [1] does the source give for `Cc1ccccc1C(=O)Nc1ccccc1OCc1cc(=O)n2ccccc2n1` here?
A: inconclusive: 0.0361% [signal inhibitor]

Q: For `Cc1ccc2nc(NC(=O)CCNS(=O)(=O)c3cccs3)sc2c1`, which IkBa stabilization activation [1] is on record?
A: inconclusive: 0.693% [signal inhibitor]

Q: For `COc1ccccc1N1CCN(C(=O)c2sc3nc(-c4ccccc4)cn3c2C)CC1`, which IkBa stabilization activation [1] is on record?
A: inconclusive: 2.33% [signal inhibitor]

Q: Which IkBa stabilization activation [1] does the source give for `CCN(CC)c1nc2c(S(=O)(=O)c3ccccc3)nnn2c2ccc(Cl)cc12` here?
A: inconclusive: 3.2% [signal inhibitor]

Q: For `Cc1cccc(-c2nc(S(=O)(=O)c3ccc(Cl)cc3)c(N3CCCCCC3)o2)c1`, which IkBa stabilization activation [1] is on record?
A: inconclusive: 3.16% [signal inhibitor]

Q: Which IkBa stabilization activation [1] does the source give for `O=C(CSc1nnc(Cc2ccccc2)n1Cc1ccco1)NC1CCCC1` here?
A: inactive

Q: Which IkBa stabilization activation [1] does the source give for `COc1cccc(-c2nc(SCC(=O)NCC3CCCO3)c(-c3ccc(C)cc3)[nH]2)c1` (configuration not stated) here?
A: inconclusive: 5.66% [signal inhibitor]

Q: For `CCOc1ccc(NC(=O)c2cc3c(C)nn(-c4ccccc4)c3s2)cc1`, which Potency [1] is on record?
A: inconclusive: 31.6 µM [signal inhibitor]

Q: Which IkBa stabilization activation [1] does the source give for `COc1ccc2[nH]cc(CCNc3ncnc4ccc(-c5ccc6c(c5)OCO6)cc34)c2c1` here?
A: inactive: -7.81% [at 11.4 µM, scaled: untreated 0%, proteasome inhibitor 100%]

Q: With `COc1cccc(-c2cc3nc(-c4ccccc4)cc(N4CCC5(CC4)OCCO5)n3n2)c1` as the molecule, how does the IkBa stabilization activation [1] read?
A: inactive

Q: With `COc1ccc(NC(=O)c2ccc3c(=O)n4nc(Nc5ccccc5C)sc4nc3c2)cc1Cl` as the molecule, how does the IkBa stabilization activation [1] read?
A: inconclusive: -1.11% [signal inhibitor]

Q: With `CCCOc1ccc(NC(=O)CC2C(=O)N(c3ccccc3)C(=O)N2Cc2ccc(F)cc2)cc1` (configuration not stated) as the molecule, how does the IkBa stabilization activation [1] read?
A: inactive

Q: For `Cc1cccc(Cn2cc(/C=C(/C#N)C(=O)Nc3cccc(Cl)c3)c3ccccc32)c1`, which Potency [1] is on record?
A: inconclusive: 2 µM [signal inhibitor]

Q: For `CCN(C(=O)c1cc2c(=O)oc3ccccc3c2s1)c1ccc(C)c(C)c1`, which IkBa stabilization activation [1] is on record?
A: inconclusive: 5.38% [signal inhibitor]

Q: Which IkBa stabilization activation [1] does the source give for `Cc1cc(Nc2ccc(N=Nc3ccc(O)c4ncccc34)cc2)nc(C)n1` here?
A: inactive: 9.75% [at 11.4 µM, scaled: untreated 0%, proteasome inhibitor 100%]

Q: With `O=C(Cn1nc(-c2ccccc2)nc(Cc2ccccc2)c1=O)Nc1ccc(Cl)cc1` as the molecule, how does the IkBa stabilization activation [1] read?
A: inconclusive: 0.995% [signal inhibitor]

Q: Which IkBa stabilization activation [1] does the source give for `O=C(COC(=O)CCC(=O)c1ccc(F)cc1)Nc1ccc(N2CCOCC2)cc1` here?
A: inactive

Q: With `Cc1oc(-c2ccc(C(=O)NCCN(C)C)cc2)nc1CS(=O)(=O)c1ccccc1` as the molecule, how does the IkBa stabilization activation [1] read?
A: inconclusive: 1.46% [signal inhibitor]

Q: Which IkBa stabilization activation [1] does the source give for `CCc1ccc(NC(=O)CSc2ccc3nc(-c4ccc(OC)cc4)cn3n2)cc1` here?
A: inconclusive: 4.65% [signal inhibitor]

Q: With `COc1ccc(NC(=O)c2ccc(-c3ccc(-c4noc(C)n4)cc3C)cc2)cc1N1CCN(C)CC1` as the molecule, how does the IkBa stabilization activation [1] read?
A: inconclusive: 0.441% [signal inhibitor]

Q: What about the IkBa stabilization activation (at 57.1 µM (top of the series), proteasome inhibitor 100%) of the same molecule?
A: inactive: -6.83%

Q: Which IkBa stabilization activation [1] does the source give for `O=c1c(NCc2ccccc2Cl)nccn1-c1ccccc1` here?
A: inactive

Q: For `CC(=O)N1CCc2cc(S(=O)(=O)NC(CC(C)C)C(=O)NCc3ccccc3Cl)ccc21` (configuration not stated), which IkBa stabilization activation [1] is on record?
A: inactive

Q: For `CCC(=O)N1CCc2cc(Br)cc(S(=O)(=O)N3CCC(C(=O)Nc4ccccc4F)CC3)c21`, which IkBa stabilization activation [1] is on record?
A: inconclusive: 6.63% [signal inhibitor]
